Residue numbers refer to the chain shown, from its start.
B1: C271 L9F4L8M2 (Fc fusion)
chain: HSQGTFTSDYSKYLDGRAAQDFVQWLMNTGPSSGAPPPSGGGGSGGGGSGGGGS[human IgG1 Fc with changes omitted here]GSGGGAGGGGSHPIPDSSPLLQFGGQVRQRYLYTDDAQQTEAHLEIREDGTVGGAADQSPESLLQLKALKPGVIQILGVKTSRFLCQRPDGALYGSLHFDPEACSFRERLLEDGYNVYQSEAHGLPLHCPGNKSPHRDPAPRGPCRFLPLPGLPPALPEPPGILAPQPPDVGSSDPLSMVGGSQGRSPSYES
B2: C240 L12F8L12M1 (Fc fusion)
chain: HSQGTFTSDYSKYLDERAAQDFVQWLMNGGPSSGAPPPSGGGGAGGGGAGGGGAA[human IgG4 Fc with S228P N297A (EU numbers) omitted here]GGGGAGGGGAGGGGAAHPIPDSSPLLQFGGQVRQRYLYTDDAQQTEAHLEIREDGTVGGAADQSPESLLQLKALKPGVIQILGVKTSRFLCQRPDGALYGSLHFDPEACSFRERLLEDGYNVYQSEAHGLPLHLPGNKSPHRDPAPRGPARFLPLPGLPPALPEPPGILAPQPPDVGSSDPLSMVGGSQGRSPSYES
B3: C495 L13F8L13M1 (Fc fusion)
chain: HSQGTFTSDYSKYLDEQAAQDFVQWLMNGGPSSGAPPPSGGGGSGGGGSGGGGSA[human IgG4 Fc with S228P N297A (EU numbers) omitted here]GGGGSGGGGSGGGGSAHPIPDSSPLLQFGGQVRQRYLYTDDAQQTEAHLEIREDGTVGGAADQSPESLLQLKALKPGVIQILGVKTSRFLCQRPDGALYGSLHFDPEACSFRERLLEDGYNVYQSEAHGLPLHLPGNKSPHRDPAPRGPARFLPLPGLPPALPEPPGILAPQPPDVGSSDPLSMVGGSQGRSPSYES
B4: C163 L13F8L13M2 (Fc fusion)
chain: HSQGTFTSDYSKYLDSRAAQDFVQWLMNTGPSSGAPPPSGGGGSGGGGSGGGGSA[human IgG4 Fc with S228P N297A (EU numbers) omitted here]GGGGSGGGGSGGGGSAHPIPDSSPLLQFGGQVRQRYLYTDDAQQTEAHLEIREDGTVGGAADQSPESLLQLKALKPGVIQILGVKTSRFLCQRPDGALYGSLHFDPEACSFRERLLEDGYNVYQSEAHGLPLHCPGNKSPHRDPAPRGPCRFLPLPGLPPALPEPPGILAPQPPDVGSSDPLSMVGGSQGRSPSYES
B5: C352 L13F4L9M3 (Fc fusion)
chain: HSQGTFTSDYSKYLDEQAAQDFVQWLMNGPSSGAPPPSGGGGSGGGGSGGGGSA[human IgG1 Fc with changes omitted here]GGGSGGGGSGGGGSDSSPLLQFGGQVRQRYLYTDDAQQTEAHLEIREDGTVGGAADQSPESLLQLKALKPGVIQILGVKTSRFLCQRPDGALYGSLHFDPEACSFRELLLEDGYNVYQSEAHGLPLHCPGNKSPHRDPAPRGPCRFLPLPGLPPALPEPPGILAPQPPDVGSSDPLAMVGPSQGRSPSYAS
B6: C240 L13F4L9M1 (Fc fusion)
chain: HSQGTFTSDYSKYLDERAAQDFVQWLMNGGPSSGAPPPSGGGGSGGGGSGGGGSA[human IgG1 Fc with changes omitted here]GGGSGGGGSGGGGSHPIPDSSPLLQFGGQVRQRYLYTDDAQQTEAHLEIREDGTVGGAADQSPESLLQLKALKPGVIQILGVKTSRFLCQRPDGALYGSLHFDPEACSFRERLLEDGYNVYQSEAHGLPLHLPGNKSPHRDPAPRGPARFLPLPGLPPALPEPPGILAPQPPDVGSSDPLSMVGGSQGRSPSYES
B7: C382 L14F4L9M2 (Fc fusion)
chain: HSQGTFTSDYSKYLDSQAAQDFVQWLMNGGPSSGAPPPSGGGGAGGGGAGGGGAS[human IgG1 Fc with changes omitted here]GGGSGGGGSGGGGSHPIPDSSPLLQFGGQVRQRYLYTDDAQQTEAHLEIREDGTVGGAADQSPESLLQLKALKPGVIQILGVKTSRFLCQRPDGALYGSLHFDPEACSFRERLLEDGYNVYQSEAHGLPLHCPGNKSPHRDPAPRGPCRFLPLPGLPPALPEPPGILAPQPPDVGSSDPLSMVGGSQGRSPSYES
B8: C495 L13F8L10M2 (Fc fusion)
chain: HSQGTFTSDYSKYLDEQAAQDFVQWLMNGGPSSGAPPPSGGGGSGGGGSGGGGSA[human IgG4 Fc with S228P N297A (EU numbers) omitted here]GGGGAGGGGAGGGGAHPIPDSSPLLQFGGQVRQRYLYTDDAQQTEAHLEIREDGTVGGAADQSPESLLQLKALKPGVIQILGVKTSRFLCQRPDGALYGSLHFDPEACSFRERLLEDGYNVYQSEAHGLPLHCPGNKSPHRDPAPRGPCRFLPLPGLPPALPEPPGILAPQPPDVGSSDPLSMVGGSQGRSPSYES
B9: C382 L13F8L10M2 (Fc fusion)
chain: B8 chain with E16S
B10: C382 L12F7L9M2 (Fc fusion)
chain: HSQGTFTSDYSKYLDSQAAQDFVQWLMNGGPSSGAPPPSGGGGAGGGGAGGGGAA[human IgG4 Fc with S228P N297A (EU numbers) omitted here]GGGGSGGGGSGGGGSHPIPDSSPLLQFGGQVRQRYLYTDDAQQTEAHLEIREDGTVGGAADQSPESLLQLKALKPGVIQILGVKTSRFLCQRPDGALYGSLHFDPEACSFRERLLEDGYNVYQSEAHGLPLHCPGNKSPHRDPAPRGPCRFLPLPGLPPALPEPPGILAPQPPDVGSSDPLSMVGGSQGRSPSYES
B11: C240 L9F7L13M2 (Fc fusion)
chain: HSQGTFTSDYSKYLDERAAQDFVQWLMNGGPSSGAPPPSGGGGSGGGGSGGGGS[human IgG4 Fc with S228P N297A (EU numbers) omitted here]GGGGSGGGGSGGGGSAHPIPDSSPLLQFGGQVRQRYLYTDDAQQTEAHLEIREDGTVGGAADQSPESLLQLKALKPGVIQILGVKTSRFLCQRPDGALYGSLHFDPEACSFRERLLEDGYNVYQSEAHGLPLHCPGNKSPHRDPAPRGPCRFLPLPGLPPALPEPPGILAPQPPDVGSSDPLSMVGGSQGRSPSYES
B12: C382 L9F3L9M2 (Fc fusion)
chain: HSQGTFTSDYSKYLDSQAAQDFVQWLMNGGPSSGAPPPSGGGGSGGGGSGGGGS[human IgG1 Fc with changes omitted here]GGGGSGGGGSGGGGSHPIPDSSPLLQFGGQVRQRYLYTDDAQQTEAHLEIREDGTVGGAADQSPESLLQLKALKPGVIQILGVKTSRFLCQRPDGALYGSLHFDPEACSFRERLLEDGYNVYQSEAHGLPLHCPGNKSPHRDPAPRGPCRFLPLPGLPPALPEPPGILAPQPPDVGSSDPLSMVGGSQGRSPSYES
B13: C382 L10F2L13M2 (Fc fusion)
chain: HSQGTFTSDYSKYLDSQAAQDFVQWLMNGGPSSGAPPPSGGGGAGGGGAGGGGA[human IgG1 Fc with changes omitted here]GGGSGGGGSGGGGSAHPIPDSSPLLQFGGQVRQRYLYTDDAQQTEAHLEIREDGTVGGAADQSPESLLQLKALKPGVIQILGVKTSRFLCQRPDGALYGSLHFDPEACSFRERLLEDGYNVYQSEAHGLPLHCPGNKSPHRDPAPRGPCRFLPLPGLPPALPEPPGILAPQPPDVGSSDPLSMVGGSQGRSPSYES
B14: C240 L9F2L13M3 (Fc fusion)
chain: HSQGTFTSDYSKYLDERAAQDFVQWLMNGGPSSGAPPPSGGGGSGGGGSGGGGS[human IgG1 Fc with changes omitted here]GGGSGGGGSGGGGSADSSPLLQFGGQVRQRYLYTDDAQQTEAHLEIREDGTVGGAADQSPESLLQLKALKPGVIQILGVKTSRFLCQRPDGALYGSLHFDPEACSFRELLLEDGYNVYQSEAHGLPLHCPGNKSPHRDPAPRGPCRFLPLPGLPPALPEPPGILAPQPPDVGSSDPLAMVGPSQGRSPSYAS
B15: C368 L10F4L10M2 (Fc fusion)
chain: HSQGTFTSDYSKYLDEQAAQDFVQWLMNTGPSSGAPPPSGGGGAGGGGAGGGGA[human IgG1 Fc with changes omitted here]GGGAGGGGAGGGGAHPIPDSSPLLQFGGQVRQRYLYTDDAQQTEAHLEIREDGTVGGAADQSPESLLQLKALKPGVIQILGVKTSRFLCQRPDGALYGSLHFDPEACSFRERLLEDGYNVYQSEAHGLPLHCPGNKSPHRDPAPRGPCRFLPLPGLPPALPEPPGILAPQPPDVGSSDPLSMVGGSQGRSPSYES

These binders were tested against FGFR/β-Klotho receptor complex (assay: cell-based or functional assay).

Row | Binder | FGF21 activity EC50 (luciferase reporter) [nM]
1 | B1 | 0.87
2 | B2 | 0.79
3 | B3 | 0.82
4 | B4 | 0.93
5 | B5 | 1.45
6 | B6 | 0.77
7 | B7 | 0.76
8 | B8 | 0.71
9 | B9 | 0.91
10 | B10 | 0.88
11 | B11 | 0.83
12 | B12 | 0.81
13 | B13 | 0.87
14 | B14 | 1.36
15 | B15 | 0.74

These binders were tested against human GLP-1 receptor (human, UniProt P43220) (assay: cell-based or functional assay).

Row | Binder | GLP-1R agonist activity EC50 (luciferase reporter) [nM]
16 | B1 | 1.33
17 | B2 | 1.13
18 | B3 | 1.33
19 | B4 | 1.28
20 | B5 | 1.21
21 | B6 | 1.26
22 | B7 | 1.25
23 | B8 | 1.3
24 | B9 | 1.21
25 | B10 | 1.3
26 | B11 | 1.17
27 | B12 | 1.18
28 | B13 | 1.19
29 | B14 | 1.31
30 | B15 | 1.3

Each binder was assayed against Glucagon receptor (assay: cell-based or functional assay).

Row | Binder | GCGR agonist activity EC50 (luciferase reporter) [nM]
31 | B1 | 1.18
32 | B2 | 1.2
33 | B3 | 1.13
34 | B4 | 1.37
35 | B5 | 1.15
36 | B6 | 1.16
37 | B7 | 1.22
38 | B8 | 1.21
39 | B9 | 1.33
40 | B10 | 1.42
41 | B11 | 1.3
42 | B12 | 1.35
43 | B13 | 1.21
44 | B14 | 1.34
45 | B15 | 1.25

— patent US20210070829A1 (ZHEJIANG DOER BIOLOGICS, published 2021)
